Literature values as cited in publication PMC11006913.
The list shows a part of the results.

target: PITX2 R130W (Homo sapiens) (UniProt Q99697); settings: PBM; conditions not shown; double strand, one strand shown; scale: upbm affinity estimate (log intensity, higher = more binding, comparable within an allelic series)

Sequence	binding signal
CGTTGGCC [8-mer CGTTGGCC]	8.08
GAGCGGGC [8-mer GAGCGGGC]	7.9
AGCATGCT [8-mer AGCATGCT]	8.42
CGCCCGAC [8-mer CGCCCGAC]	7.98
TAGATTAA [8-mer TAGATTAA]	8.71
GTGCGCCA [8-mer GTGCGCCA]	8.08
GGATTACC [8-mer GGATTACC]	8.46
CGGGGTCC [8-mer CGGGGTCC]	7.97
GGCCCCCC [8-mer GGCCCCCC]	7.5
CCTGCACC [8-mer CCTGCACC]	8.17
ATAATCCG [8-mer ATAATCCG]	8.59
AACCGGGC [8-mer AACCGGGC]	7.97
AGTTAATC [8-mer AGTTAATC]	8.63
CGACGGCG [8-mer CGACGGCG]	7.99
ACGGGTCC [8-mer ACGGGTCC]	8.04
ATTAAGCC [8-mer ATTAAGCC]	8.52
CGCCACCC [8-mer CGCCACCC]	7.94
CCGGTCTC [8-mer CCGGTCTC]	7.99
GCGCAGAC [8-mer GCGCAGAC]	8.18
CAGATTAG [8-mer CAGATTAG]	8.51
AAAGATTA [8-mer AAAGATTA]	8.8
GTCCCCAC [8-mer GTCCCCAC]	7.96
CGGCCCCC [8-mer CGGCCCCC]	7.73
GATTAAGC [8-mer GATTAAGC]	8.49
ACTAATCC [8-mer ACTAATCC]	8.55
AAGATTAA [8-mer AAGATTAA]	8.56
CAGGCCCA [8-mer CAGGCCCA]	7.97
CGGGACCA [8-mer CGGGACCA]	8.01
